From the supplement of paper PMC10338343
± gives the standard deviation. Whole data set: some 3,700 sequences, median “pre-steady-state target cleavage rate” near 0.02, cut for the highest 2% near 0.23. The entries are a selection whose mix differs from that of the whole data set.

tested on: MILI (PIWIL2) piRISC loaded with Kctd7 piRNA (26 nt); test: pre-steady-state target cleavage rate (min^-1); MIWI and MILI are mouse PIWI proteins and EfPiwi is from a freshwater sponge; tags in brackets are library labels; higher = faster piRNA-guided slicing of the target; conditions: guide: Kctd7 piRNA 5'p-UGUUAAUCUCUCAGAGAAGGUGACAG; auxiliary factor: 500 nM mouse GTSF1
Summary of the method: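 In HEPES–potassium acetate buffer at 33 °C, […] transcribed, DNA-blocked target RNA library was mixed with 1 nM active affinity-purified piRISC carrying one synthetic guide, with or without 500 nM GTSF1 partner protein, for 0–8 or 0–960 min. Uncleaved targets were sequenced and normalised to depth and to weakly complementary targets; three trials were pooled and k3 was capped at 0.0001 min^-1. The pre-steady-state cleavage rate followed from a burst-and-steady-state fit.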
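Note: 1 nM active piRISC with 0.1 nM target library at 33 °C single turnover.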

Sequence	pre-steady-state target cleavage rate
UAGUGACACACGUUCUCUGAGAGAUUAACA	0.154 ± 0.013
UAGUGACAGUGCUUCUGUGAGAGUUUAACA	0.00779 ± 0.0029
UAGUGACACACCUAUCUCUGAGAGAUUAACA	0.127 ± 0.01
UAGUGACAGUGCUUGACUGAGAGAUUAACA	0.0076 ± 0.0029
UAGUGAGUCACCUUCUCUGGGAGAUUAACA	0.185 ± 0.016
UAGUGAGUCACCUUCUCAGAGAGAUUAUGA	0.0278 ± 0.012
UAGUCUGUCAGCUUCUCUGAGAGAUAAACA	0.0441 ± 0.008
UAGUGUGUCACCUUCUCUGUGAGAUAAACA	0.0219 ± 0.0069
UAGUGACAGUGCUUCUCUCUCAGAUUAACA	0.00315 ± 0.0025
UAGUGACACACCUUCACUGAGACAUUAACA	0.103 ± 0.013
UAGUGUGUCACCUUCGCUGAGAGAUUAACA	0.134 ± 0.018
UAGUGACAGUGGAAGUCUGAGAGAUUCACA	< 0.0001
UAGUGACACACCUUGUCUGAGAGAUUUACA	0.0234 ± 0.0099
UAGUCUGUCACCUUCUCUGUGAGAAUAACA	0.0177 ± 0.0055
UAGUGUGCUCACCUUCUCUGAGAGAUUAACA	0.205 ± 0.013
UAGUCUGUCACCUUCACUGAGACAUUAACA	0.098 ± 0.013
UAGUGACAGUGGAAGUCUGAGAGAUUUUCA	< 0.0001
UAGUGACACACCUUCUCUGAGAGAUAUACA	0.031 ± 0.016
UAGUGACAGUGGUAUCUCUGAGAGAUUAACA	0.00403 ± 0.002
UAGUGUGUCUCCUUCUCUGAGAGAUUAUCA	0.0619 ± 0.011
UAGUGACUCACCUUGUCUGAGAGUUUAACA	0.0235 ± 0.011
UAGUGAGUCUCGUUCUCUGAGAGAUUAACA	0.133 ± 0.0076
UAGUGACACACCUUCACUGAGAGAUUAUCA	0.0372 ± 0.014

Sequence	pre-steady-state target cleavage rate
UAGUGACACACCUUCUCUGUGAGAUAAACA	0.024 ± 0.0088
UAGUGACUCCCCUUCUCUGAGAGAUUAACA	0.154 ± 0.014
UAGUGUGUCACUUUCUCUGAGAGAUUAACA	0.165 ± 0.018
UAGUGACUCACCUUCUCUCAGACAUUAACA	0.022 ± 0.0053
UAGUGACACUGGUUCUCUGAGAGAUUAACA	0.0992 ± 0.0058
UAGUGACAGUGGAAGUCUGACAGAUUAAGA	< 0.0001
UAGUGUGUCACCUUGUCUGUGAGAUUAACA	0.0348 ± 0.0058
UAGUGUGUCAACCUUCUCUGAGAGAUUAACA	0.0779 ± 0.012
UAGUCUGUCACUCUUCUCUGAGAGAUUAACA	0.123 ± 0.0081
UAGUGACACACCUUCUCUGAGAGCUUAACA	0.091 ± 0.013
UAGUGAGUCACGUACUCUGAGAGAUUAACA	0.119 ± 0.0087
UAGUGUGUCACCUUCUCUUAGAGAUUAACA	0.0988 ± 0.011
UAGUGACACACCUUUUCUGAGAGAUUAACA	0.123 ± 0.013
UAGUGACUCACCUUCUCUGAGAUAUUAACA	0.0786 ± 0.012
UAGUGACAGACCUUCUCUGAGAGAUCAACA	0.078 ± 0.029
UAGUCUGUCACCUUGUCUGAGAGAUUUACA	0.144 ± 0.032
UAGUGACAGACCUUCUCUGUGAGAUUAUCA	0.0125 ± 0.0065
UAGUGUGUCACCUUCUCUGAGAGUUUAUCA	0.198 ± 0.066
UAGUCUGUCACCUUGACUGAGAGAUUAACA	0.0531 ± 0.0079
UAGUCUGUCACCUUCUCUGAGAGAUUAACA [g2:g26:cont:t1A]	0.22 ± 0.013
UAGUGACACACCUUCUCUGAGAGAUAAACA	0.114 ± 0.019
UAGUGACAGUCCUUCACAGAGAGAUUAACA	0.0077 ± 0.0037
